Laboratory results published in publication PMC10079535, “Serine-arginine protein kinase 1 (SRPK1) promotes EGFR-TKI resistance by enhancing GSK3β Ser9 autophosphorylation independent of its kinase activity in non-small-cell lung cancer” (Oncogene, 2023).

B1: GST-GSK3β (K85A), kinase-dead mutant (natural protein)
chain: not shown
notes: Human GSK3β with the kinase-dead mutation K85A, GST tag
B2: GST-GSK3β (S9A), phosphorylation-defective mutant (natural protein)
chain: not shown
notes: Human GSK3β with the phosphorylation-defective mutation S9A, GST tag
B3: GST-GSK3β (S9A/K85A), double mutant (natural protein)
chain: not shown
notes: Human GSK3β with the mutations S9A and K85A, GST tag

Each binder was assayed against T1, His-SRPK1 WT (human, UniProt Q96SB4 1-655) (assay: pull-down; His-tagged proteins incubated with bead-bound GST fusion proteins; beads washed at least five times with PBS; Western blot). Conditions: both partners purified.
T1 construct: Human SRPK1 FL (full length) cDNA cloned with a His tag; also called SRPK1-FL; source: E. coli (BL21 DE3)
B1: binds. B2: binds. B3: binds.

Each binder was assayed against T2, His-SRPK1(K109A), kinase-dead mutant (human, UniProt Q96SB4 1-655, K109A) in the same assay as above. Conditions: both partners purified.
T2 construct: Human SRPK1 with the kinase-dead mutation K109A, His tag; source: E. coli (BL21 DE3)
B1: binds. B2: binds. B3: binds.
